# Laboratory results published in ChEMBL document CHEMBL4888484, “Replenishing the malaria drug discovery pipeline: Screening and hit evaluation of the MMV Hit Generation Library 1 (HGL1) against asexual blood stage Plasmodium falciparum ,using a nano luciferase reporter read-out” (2022).
# Among all 150,000 compounds or so, about 540 (0.36%) showed an effect of 50% or more. The list shows a part of the results.
# Test system: Plasmodium falciparum
# Assay: Primary screen in NF54 nanoGlo assay, in single point, at 2uM, 72h; a lower Z score goes with more inhibition
# Format: functional, Erythrocyte
# Details: timepoint 72 hour
Structure (SMILES),% Inhibition [%],Z score
CC[C@H]1CN(C(=O)c2ccc(-c3ccccc3)[nH]2)CCN1CC(F)F,-6,0.91
C#Cc1cccc(NC(=O)NCc2cn(C(C)(C)C)c(=O)[nH]c2=O)c1,-5,0.82
CC1(N(C(=O)[C@H]2CCCO2)c2ccccc2)CC1,0,-0.1
O=C(c1ccc(F)cc1)N1CCc2nc(N3CCCCC3)nc(Oc3ccc(F)c(F)c3)c2C1,-14,1.39
Nc1[nH]nc(C(=O)N2CCc3n[nH]cc3C2)c1Cl,1,-0.15
Cc1nccnc1C(=O)NC[C@H]1CCC[C@@H](CO)C1,2,-0.29
CCCc1ccc(CN2CCC[C@](C)(C#N)C2)o1,-17,1.79
COCc1cccc(C(=O)Nc2ccc(-c3nnn[nH]3)cc2)c1,7,-1.14
Cc1cc(C)nc(-n2cc(C(=O)N(C)c3ccccc3)c(C(C)C)n2)n1,-16,3.03
Cc1cc(C(=O)NC2CCN(Cc3ccccc3)C(C)C2)c2cnn(C)c2n1 (stereo unspecified),-11,1.67
COCc1ccccc1-c1noc(C[C@H]2CNCCS2(=O)=O)n1,-7,0.87
COc1ccc(-n2ncc(Oc3ccc4c(c3)CCC4)c(Nc3cccc(C(=O)N(C)Cc4ccccc4)c3)c2=O)cc1,6,-1.09
O=C(NCc1cccnc1-c1ccncc1)NC1CCOCC1,-9,1.05
CCc1ccc(S(=O)(=O)N[C@@H]2CNC(=O)C2)s1,5,-0.69
CCNc1nc(C)c(C(=O)N2C[C@H](C(C)C)[C@@H](N(C)C)C2)s1,0,0.02
CCCCCN(CCO)Cc1noc(Cc2ccccc2)n1,-5,0.7
CN(C)C[C@]1(O)CCN(c2nc3cccc(F)c3s2)C1,-4,0.52
N#CC1(NC(=O)CN2CCN(C(=O)C3CCCC3)CC2)CCCC1,-9,1.03
Cc1nn(C(C)(C)C)c(C)c1[C@@H]1CC(=O)Nc2n[nH]c(C3CCC3)c21,2,-0.24
CCOc1ccccc1-c1nccn1CCN1CCCC1=O,8,-1.16
O=C(N[C@H]1CCCc2ccccc21)c1cc2n(n1)CCCN(Cc1ccc(F)cc1)C2=O,-4,0.37
CCn1ccnc1C1CCCCN1S(=O)(=O)N(C)CC(C)C#N (stereo unspecified),2,-0.29
C[C@H](Nc1nc(C(F)(F)F)ns1)c1cccnc1,-8,0.78
